{"source": "PubChem BioAssay AID624296", "about": "(National Center for Advancing Translational Sciences (NCATS), 2012)", "note": "Screen size: about 350,000 compounds; about 9,900 (2.8%) were called active. This list was built around the results that the source calls inconclusive (neither active nor inactive); the mix of calls is not that of the screen. Calls come from the whole dose curve; as a rule, active = well fitted activation curve with a large enough effect; inconclusive = small, poorly fitted or top-dose-only effect; inactive = no such curve, though single readings can be large or run the other way. Potencies of inconclusive entries are left out as doubtful fits. Potency is the fitted concentration of half-maximal effect; tags give direction and shape of the fitted curve.", "data": [{"assay": "A quantitative high throughput screen for small molecules that induce DNA re-replication in MCF 10a normal breast cells; note: nearly all actives have a fitted effect of over 50% in size.", "settings": "MCF 10A DNA re-replication, Hoechst nuclear intensity, 48 h; series mostly up to 46.1 µM", "values": [{"compound": "CC(C)Cc1ccc(C2=CSC3=NCCN23)cc1", "Potency": "inconclusive [activator, full curve, poor fit]"}, {"compound": "COc1ccccc1C(=O)N1CCN(Cc2c[nH]c3ccccc23)CC1", "Potency": "inactive"}, {"compound": "O=C(CNC(=O)c1ccc(Br)o1)NCc1ccccc1Cl", "Potency": "inactive"}, {"compound": "CN(CCC#N)C(=O)COC(=O)c1c2c(nc3ccccc13)/C(=C/c1ccco1)CC2", "Potency": "inconclusive [activator, single point]"}, {"compound": "O=C(Nc1cccc([N+](=O)[O-])c1)ONC1=NCCCCC1", "Potency": "inactive"}, {"compound": "Cc1sc2nc(CSc3nnnn3-c3ccc(Cl)cc3)[nH]c(=O)c2c1C", "Potency": "inconclusive [activator, single point]"}, {"compound": "Clc1ccc(OCc2cn3ccccc3n2)c2ncccc12", "Potency": "inactive"}, {"compound": "COc1ccc(NC2=CC(=O)CC(c3ccc(C)cc3)C2)c(OC)c1", "note": "(centres undefined)", "Potency": "inconclusive [activator, single point]"}, {"compound": "O=C(c1ccc(SCc2ccco2)c([N+](=O)[O-])c1)N1CCOCC1", "Potency": "inactive"}, {"compound": "O=C(CSc1nc(-c2ccccc2)c(-c2ccccc2)[nH]1)Nc1nccs1", "Potency": "inconclusive [activator, partial curve, poor fit]"}, {"compound": "COC(=O)CSc1nc2c(c(-c3ccc(O)cc3)c1C#N)CCCC2", "Potency": "active: 18.4 µM"}, {"compound": "O=C(CN1CCN(Cc2ccccc2F)CC1)Nc1ccccc1Cl", "Potency": "inactive"}, {"compound": "Cc1ccc(SCCC(=O)Nc2ccc(Br)c(C)c2)cc1", "Potency": "inconclusive [activator, single point]"}, {"compound": "Cc1cc(Br)ccc1SCC(=O)OCC(=O)Nc1ncc(C(F)(F)F)cc1Cl", "Potency": "inactive"}, {"compound": "CC(C)(C)NS(=O)(=O)c1ccc2nc(NC(=O)Cc3cccs3)sc2c1", "Potency": "inconclusive [activator, partial curve, poor fit]"}, {"compound": "O=C(NCCc1ccccc1)C(=S)N1CCCCC1", "Potency": "inactive"}, {"compound": "CNC(=O)c1c(NC(=O)C2=COCCO2)sc2c1CCCC2", "Potency": "inconclusive [activator, full curve, poor fit]"}, {"compound": "CC(C)(C)OC(=O)C[C@H]1C/C=C\\C[C@H](CC(=O)N(CCO)Cc2ccccc2)C(=O)N[C@@H](c2ccccc2)COC1=O", "Potency": "inactive"}, {"compound": "CCCCCCCNC1=CC(=O)CC(c2ccco2)C1", "note": "(centres undefined)", "Potency": "inconclusive [activator, partial curve, poor fit]"}, {"compound": "CCOC(=O)[C@H]1[C@H]2COc3ccc(Br)cc3[C@@H]2N2C(=O)CN(Cc3ccccc3)C(=O)[C@@]12C", "Potency": "inactive"}, {"compound": "OCCN(CCO)CC(O)COc1ccc(C23CC4CC(CC(C4)C2)C3)cc1", "note": "(centres undefined)", "Potency": "inconclusive [activator, full curve, poor fit]"}, {"compound": "COc1ccccc1N1CCN(C(=O)CSc2nnc3n2C(C)(C)Cc2ccccc2-3)CC1", "Potency": "inactive"}, {"compound": "CCCn1c(-c2ccc(F)cc2)cnc1SCC(=O)O", "Potency": "inconclusive [activator, partial curve, poor fit]"}, {"compound": "COc1cc2c(C(=O)N3CCN(C4CCCCC4)CC3)cn(CC(C)C)c(=O)c2cc1OC", "Potency": "inconclusive [activator, single point]"}, {"compound": "CCN(C(=O)CSc1ccccn1)C1CCCCC1", "Potency": "inconclusive [activator, single point]"}, {"compound": "CNC(=O)c1ccc(Nc2nnc(-c3ccc(C)c(S(=O)(=O)NCC4CCCO4)c3)c3ccccc23)cc1", "note": "(centres undefined)", "Potency": "inconclusive [activator, partial curve, poor fit]"}, {"compound": "COC(=O)c1c(-c2ccsc2)sc2ccc(-c3cc(OC)c(OC)c(OC)c3)cc12", "Potency": "inactive"}, {"compound": "O=C(C[n+]1cccc(C(=O)N/N=C/c2cccc([N+](=O)[O-])c2)c1)c1ccccc1", "Potency": "inactive"}, {"compound": "CCN(C(=O)CSc1nnc(C)c(=O)[nH]1)c1cccc2ccccc12", "Potency": "inactive"}, {"compound": "O=C(O)CC(Sc1n[nH]c(=S)s1)C(=O)O", "note": "(centres undefined)", "Potency": "inconclusive [activator, partial curve, poor fit]"}, {"compound": "NC(=O)COC(=O)[C@H](Cc1c[nH]c2ccccc12)NC(=O)c1ccc(F)cc1", "Potency": "inconclusive [activator, single point]"}, {"compound": "COc1cc(/C=C2/C(=O)NN(c3cccc(C)c3)C2=O)cc([N+](=O)[O-])c1O", "Potency": "inconclusive [activator, partial curve, poor fit]"}, {"compound": "Cc1ccc(C2=NS(=O)(=O)N(C)C(C(=O)NCc3cccs3)=C2)cc1", "Potency": "inactive"}, {"compound": "COc1ccccc1NC(=O)Nc1ccncc1", "Potency": "inconclusive [activator, full curve, poor fit]"}, {"compound": "CC1=C(C(=O)Nc2ccccc2)C(c2ccc(C)cc2)N=C(Nc2nc3ccccc3o2)N1", "note": "(centres undefined)", "Potency": "inconclusive [activator, single point]"}, {"compound": "CCCn1c(=O)c(C(=O)NCCc2ccc(OC)cc2)c(O)c2ccccc21", "Potency": "inconclusive [activator, partial curve, poor fit]"}, {"compound": "C(=C\\CSc1ncn[nH]1)/CSc1ncn[nH]1", "Potency": "inconclusive [activator, partial curve, poor fit]"}, {"compound": "Cn1cc(CNCc2ccc(-n3cccn3)cc2)c(-c2ccccc2F)n1", "Potency": "inactive"}, {"compound": "Cc1ccc(NC(=O)C(C)OC(=O)c2ccc(NS(=O)(=O)c3ccc(F)c(F)c3)cc2)cc1", "note": "(centres undefined)", "Potency": "inconclusive [activator, partial curve, poor fit]"}, {"compound": "Cc1ccnc(NC(=O)c2ccc([N+](=O)[O-])o2)c1", "Potency": "active: 4.11 µM"}, {"compound": "COC(=O)c1cc(C(=O)OCC(=O)NC2CCCC2)cc([N+](=O)[O-])c1", "Potency": "inactive"}, {"compound": "C=CCn1c(CCNC(=O)c2cccs2)nnc1SCC(=O)c1cccc([N+](=O)[O-])c1", "Potency": "inconclusive [activator, partial curve, poor fit]"}, {"compound": "CN(CC(=O)Nc1ccccc1Br)CC(=O)Nc1ccccc1C(F)(F)F", "Potency": "inactive"}, {"compound": "C[C@]12c3[nH]c4ccc(Cl)cc4c3CCN1C(=O)[C@@H](CC(=O)NCc1cccc(C(F)(F)F)c1)C[C@@H]2C(=O)N1CCOCC1", "Potency": "inconclusive [activator, single point]"}, {"compound": "O=C(COC(=O)c1ccc2c(c1Cl)C(=O)c1ccccc1C2=O)NC1CCCCC1", "Potency": "inconclusive [activator, partial curve]"}, {"compound": "CN(Cc1ccccc1)S(=O)(=O)c1ccc(Cl)c(C(=O)NCc2ccncc2)c1", "Potency": "inactive"}, {"compound": "Cc1ccc(CN(Cc2cc3cc4c(cc3[nH]c2=O)OCCO4)Cc2nnnn2Cc2ccco2)cc1", "Potency": "inconclusive [activator, single point]"}, {"compound": "CSc1ccccc1NC(=O)c1cc2c(=O)n3ccccc3nc2s1", "Potency": "inconclusive [activator, single point]"}, {"compound": "O=C(Cc1ccsc1)NCC(=O)Nc1ccc(F)c(F)c1", "Potency": "inactive"}, {"compound": "CCCCCCn1c(=O)c(-c2ccccc2)c(O)c2ccccc21", "Potency": "inactive"}, {"compound": "Nc1nn(-c2ccccc2)c2ccc([N+](=O)[O-])cc12", "Potency": "inactive"}, {"compound": "COc1ccc(/C=C/C2=CCN(Cc3ccc(OC)cc3)CC2)cc1", "Potency": "inconclusive [activator, single point]"}, {"compound": "O=C(CSc1nnc2c(n1)[nH]c1ccc(S(=O)(=O)N3CCOCC3)cc12)Nc1ccccc1Cl", "Potency": "inconclusive [activator, partial curve, poor fit]"}, {"compound": "Fc1ccc(COc2ccc3ccccc3c2CNc2nn[nH]n2)cc1", "Potency": "inconclusive [activator, single point]"}, {"compound": "O=C(/C=C/c1ccco1)Nc1cccc(NC(=O)/C=C/c2ccco2)n1", "Potency": "inconclusive [activator, partial curve, poor fit]"}, {"compound": "COc1ccc(CC/C(C)=N\\NC(N)=O)cc1", "Potency": "inactive"}, {"compound": "CC(C)C[C@H](NC(=O)c1nc[nH]c1C(=O)NCc1ccccc1)C(=O)OCc1ccccc1", "Potency": "inconclusive [activator, full curve, poor fit]"}, {"compound": "CC(C)(C)c1nnc(NC(=O)C2c3ccccc3Oc3ccccc32)s1", "Potency": "inconclusive [activator, partial curve, poor fit]"}, {"compound": "CC(=O)Nc1cc2c(cc1C(=O)c1ccc(C)cc1)OCCO2", "Potency": "inconclusive [activator, partial curve, poor fit]"}, {"compound": "COc1ccccc1CNS(=O)(=O)c1cc(C(=O)NCc2ccccn2)c(Cl)cc1Cl", "Potency": "inconclusive [activator, single point]"}, {"compound": "CCOC(=O)C1=C(c2ccccc2)N=c2s/c(=C\\c3ccc(O)cc3)c(=O)n2C1c1cccs1", "note": "(centres undefined)", "Potency": "inconclusive [activator, partial curve, poor fit]"}, {"compound": "O=C(Nc1nccs1)c1csc2c1CCCC2", "Potency": "inactive"}, {"compound": "Cc1cccc2cc(CN(Cc3ccco3)C(=O)c3ccncc3)c(=O)[nH]c12", "Potency": "inactive"}, {"compound": "Cc1ccc(OCCn2c(C)nc3ccccc32)cc1", "Potency": "inconclusive [activator, partial curve, poor fit]"}, {"compound": "Cc1ccc(-n2nc3ccc(N)cc3n2)cc1", "Potency": "inconclusive [activator, partial curve, poor fit]"}, {"compound": "COc1cc(C(=O)NC(=S)N2CCCCCC2)cc(OC)c1OC", "Potency": "inactive"}, {"compound": "CN1CCN(CC#Cc2ccccc2)CC1CCO", "note": "(centres undefined)", "Potency": "inconclusive [activator, partial curve, poor fit]"}, {"compound": "CC(=O)Nc1ccc(/C=C/c2nc3ccccc3[nH]c2=O)cc1", "Potency": "inconclusive [activator, partial curve, poor fit]"}, {"compound": "CCN1CCc2c(sc(NC(=O)CN3C(=O)c4ccccc4C3=O)c2C(N)=O)C1", "Potency": "inconclusive [activator, full curve]"}]}]}
